The other results are listed elsewhere or left out.
What was measured:
Assay in all cases: glycan array binding signal (z-score within array); higher = stronger binding
Details in all cases: glycan notation: IUPAC condensed, linker removed
[1] = molecular target: GalNAc(b1-4)GlcNAc
Summary of the method: (§1)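 From the Consortium for Functional Glycomics database, 3228 arrays were curated, keeping only those whose protein sequence was available. Binding is given as a within-array Z-score averaged across arrays sharing a protein sequence and across linkers. Negative Z-scores can be read as non-binding.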

[2] = molecular target: GalNAc(b1-4)GlcNAc(b1-2)Man
Summary of the method: as §1

[3] = molecular target: GalNAc(b1-4)GlcNAc(b1-2)Man(a1-3)[GalNAc(b1-4)GlcNAc(b1-2)Man(a1-6)]Man(b1-4)GlcNAc(b1-4)GlcNAc
Summary of the method: as §1

[4] = molecular target: GalNAc(b1-4)GlcNAc(b1-3)GalNAc(b1-4)GlcNAc
Summary of the method: as §1

[5] = molecular target: GalNAc(b1-4)GlcNAc6S
Summary of the method: as §1

[6] = molecular target: GalNAc(b1-6)GalNAc
Summary of the method: as §1

[7] = molecular target: GalNAc3S(b1-4)GlcNAc
Summary of the method: as §1

[8] = molecular target: GalNAc3S(b1-4)GlcNAc3S
Summary of the method: as §1

[9] = molecular target: GalNAc3S(b1-4)[Fuc(a1-3)]GlcNAc
Summary of the method: as §1

[10] = molecular target: GalNAc4S6S(b1-4)GlcNAc
Summary of the method: as §1

[11] = molecular target: GalNAc6S(b1-4)GlcNAc
Summary of the method: as §1

[12] = molecular target: Glc(a1-4)Glc
Summary of the method: as §1

[13] = molecular target: Glc(a1-4)Glc(a1-4)Glc(a1-4)Glc
Summary of the method: as §1

[14] = molecular target: Glc(a1-6)Glc(a1-6)Glc
Summary of the method: as §1

[15] = molecular target: Glc(a1-6)Glc(a1-6)Glc(a1-6)Glc
Summary of the method: as §1

[16] = molecular target: Glc(b1-4)Glc
Summary of the method: as §1

[17] = molecular target: Glc(b1-6)Glc
Summary of the method: as §1

[18] = molecular target: GlcA(b1-3)Gal
Summary of the method: as §1

[19] = molecular target: GlcA(b1-3)GlcNAc
Summary of the method: as §1

[20] = molecular target: GlcA(b1-6)Gal
Summary of the method: as §1

[21] = molecular target: GlcA3S(b1-3)Gal(b1-4)GlcNAc(b1-2)Man
Summary of the method: as §1

[22] = molecular target: GlcA3S(b1-3)Gal(b1-4)GlcNAc(b1-3)Gal(b1-4)Glc
Summary of the method: as §1

[23] = molecular target: GlcNAc(a1-3)Gal(b1-4)GlcNAc
Summary of the method: as §1

[24] = molecular target: GlcNAc(a1-4)Gal(b1-3)GlcNAc
Summary of the method: as §1

[25] = molecular target: GlcNAc(a1-4)Gal(b1-4)GalNAc
Summary of the method: as §1

[26] = molecular target: GlcNAc(a1-4)Gal(b1-4)GlcNAc
Summary of the method: as §1

[27] = molecular target: GlcNAc(a1-4)Gal(b1-4)GlcNAc(b1-3)Gal(b1-4)Glc
Summary of the method: as §1

[28] = molecular target: GlcNAc(a1-4)Gal(b1-4)GlcNAc(b1-3)Gal(b1-4)GlcNAc
Summary of the method: as §1

[29] = molecular target: GlcNAc(a1-4)Gal(b1-4)GlcNAc(b1-3)Gal(b1-4)GlcNAc(b1-3)Gal(b1-4)GlcNAc
Summary of the method: as §1

[30] = molecular target: GlcNAc(a1-4)Gal(b1-4)GlcNAc(b1-3)Gal(b1-4)[Fuc(a1-3)]GlcNAc(b1-3)Gal(b1-4)[Fuc(a1-3)]GlcNAc
Summary of the method: as §1

[31] = molecular target: GlcNAc(a1-6)Gal(b1-4)GlcNAc
Summary of the method: as §1

[32] = molecular target: GlcNAc(b1-2)Gal(b1-3)GalNAc
Summary of the method: as §1

[33] = molecular target: GlcNAc(b1-2)Man(a1-3)[GlcNAc(b1-2)Man(a1-6)]Man(b1-4)GlcNAc(b1-4)GlcNAc
Summary of the method: as §1

[34] = molecular target: GlcNAc(b1-2)Man(a1-3)[GlcNAc(b1-2)Man(a1-6)]Man(b1-4)GlcNAc(b1-4)[Fuc(a1-6)]GlcNAc
Summary of the method: as §1

[35] = molecular target: GlcNAc(b1-2)Man(a1-3)[GlcNAc(b1-4)][GlcNAc(b1-2)Man(a1-6)]Man(b1-4)GlcNAc(b1-4)GlcNAc
Summary of the method: as §1

[36] = molecular target: GlcNAc(b1-2)Man(a1-3)[GlcNAc(b1-4)][GlcNAc(b1-2)Man(a1-6)]Man(b1-4)GlcNAc(b1-4)[Fuc(a1-6)]GlcNAc
Summary of the method: as §1

[37] = molecular target: GlcNAc(b1-2)[GlcNAc(b1-4)]Man(a1-3)[GlcNAc(b1-2)Man(a1-6)]Man(b1-4)GlcNAc(b1-4)GlcNAc
Summary of the method: as §1

B1: PkBDPgamma (Plasmodium knowlesi) (protein)
chain: SAINQIFLQNNVMDKCNDKRKRGERDWDCPTEKDVCIPDRRYQLCMMEITNLVDTDTHFHSDIIFRKSYSRRRLIYDVGGRGDLLLKKYNNVYSEDLCKDIKWSLQDFGDIIMGTDMEGIGYSLVVQNNLRSIFGTGTSAELDRKKWWNDHKKDIWKAMILSVKEKNRYSAWNCKEDVQIKVEPQIYRWIREWGRDYMSEFREQRRKLNEKCEDKLYYSTMLICTLPPCNNACKSYDEWITGKKKQWDVLSTKFSSVKKAQKIETENIARAYDILKQELNGFNEVTFENEINKRDKLYNYFCVCIVQEARKNTQENVKNVGSGVESKAPSSNPINEAVKSSSGEGKVQEDSAHRSVNEGEGKSSTNEADPGSQPGAAASGGGSGGGTGGGVDLAPQMLRELQETNAALQDVRELLRQQVKEITFLKNTVMECDACGGPLDRNLPPLAPLGPTGGWSHPQFEK
glycan array binding signal (z-score) [1]: -0.002 | glycan array binding signal (z-score) [2]: -0.287 | glycan array binding signal (z-score) [3]: 0.206 | glycan array binding signal (z-score) [4]: 0.044 | glycan array binding signal (z-score) [5]: 0.1 | glycan array binding signal (z-score) [6]: 0.029 | glycan array binding signal (z-score) [7]: 0.264 | glycan array binding signal (z-score) [8]: -0.215 | glycan array binding signal (z-score) [9]: 0.068 | glycan array binding signal (z-score) [10]: -0.478 | glycan array binding signal (z-score) [11]: 0.267 | glycan array binding signal (z-score) [12]: 0.205 | glycan array binding signal (z-score) [13]: -0.232 | glycan array binding signal (z-score) [14]: -0.504 | glycan array binding signal (z-score) [15]: 0.897 | glycan array binding signal (z-score) [16]: 0.621 | glycan array binding signal (z-score) [17]: 0.045 | glycan array binding signal (z-score) [18]: -0.021 | glycan array binding signal (z-score) [19]: -0.473 | glycan array binding signal (z-score) [20]: -0.22 | glycan array binding signal (z-score) [21]: -0.251 | glycan array binding signal (z-score) [22]: -0.358 | glycan array binding signal (z-score) [23]: -0.102 | glycan array binding signal (z-score) [24]: -0.192 | glycan array binding signal (z-score) [25]: -0.178 | glycan array binding signal (z-score) [26]: -0.557 | glycan array binding signal (z-score) [27]: -0.217 | glycan array binding signal (z-score) [28]: -0.39 | glycan array binding signal (z-score) [29]: -0.159 | glycan array binding signal (z-score) [30]: 0.193 | glycan array binding signal (z-score) [31]: -0.284 | glycan array binding signal (z-score) [32]: -0.401 | glycan array binding signal (z-score) [33]: -0.276 | glycan array binding signal (z-score) [34]: -0.068 | glycan array binding signal (z-score) [35]: 0.306 | glycan array binding signal (z-score) [36]: -0.105 | glycan array binding signal (z-score) [37]: 0.378
